Assay results from the supplement of paper PMC7125110.
± gives the standard error. This sample is rich in variants without activity.

B1: glmS ribozyme (parent)
chain: AUAAAAGCGCCAGAACUACAGAAAUGUAGUUGACGAGGAGGAGGUUUAUCGAAUUUUCGGCGGAUGCCUCCAAA

Variants of: B1
Assay: self-cleavage kobs at 2500 uM GlcN6P; higher = faster cleavage; RNA array
Details: with glucosamine-6-phosphate
Summary of the method: (§1)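 Barcoded glmS ribozyme variants on sequenced MiSeq chips were transcribed in situ by E. coli RNA polymerase and tracked through a hybridised Cy3 probe at 37 °C. Glucosamine-6-phosphate (40 μM to 10 mM) in HEPES/KCl/Mg(OAc)2 buffer was flowed in, and tiles were imaged over ~14 h. Signals were normalised to baseline and to non-cleaving reference variants; per-tile medians were fit to one- or two-exponential decays to give kobs. kcat and KM came from weighted Michaelis–Menten fits across concentrations.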

Variant | self-cleavage kobs at 2500 uM GlcN6P [s⁻¹]
A39C C71A | 4.16e-05 ± 1.1e-05
G51U A64G C70U | < 1e-05
U45A U46G G62C | < 1e-05
G40U A52U G60C | < 1e-05
G44C G51A U55C U56C | < 1e-05
G51U G60U C71G | < 1e-05
U46C C50A G63U | < 1e-05
A42U C58U U65G | < 1e-05
G51A G62A U65A | < 1e-05
G41U G51C G63U | < 1e-05
A39C C50A C61U C71U | < 1e-05
A39G A48C C58G | < 1e-05
A39C U47G U49A C70A | < 1e-05
G41A G43U G60C C61U | < 1e-05
A52C G59C G63U A64G C67A | < 1e-05
A39C U47C U55A | 0.000971 ± 0.00023
G43U C50A A64U | < 1e-05
U49A A52U A64G | < 1e-05
G43A G44U C50A G66C | < 1e-05
C50A G60U G63A | < 1e-05
A39G G43C G51U A64G | < 1e-05
G44U U49C C50G G51C | < 1e-05
G43U U45G U56A G59U G60U U65A | < 1e-05
G41C U45G A48C U55A | < 1e-05
G41A C50U C71U | < 1e-05
A48C C50G C70U | < 1e-05

Variant | self-cleavage kobs at 2500 uM GlcN6P [s⁻¹]
U55C C58G | 3.85e-05 ± 1.1e-05
C50A U65G C67A | 8.64e-05 ± 2.2e-05
A42G U47A G66C C70U | < 1e-05
A39G G43A A52U U69C | < 1e-05
A39U G66A C70G | 0.000771 ± 0.00023
U45A U46A A52U | 8.04e-05 ± 3.5e-05
A52C G59C A64U | < 1e-05
G41U G44U C67U U69G | < 1e-05
G44C C50U | < 1e-05
G44C U49A G51C | < 1e-05
C50A A52U A53G U54C U65C | < 1e-05
G40C G41U G43C U46C C70G | < 1e-05
A39G U49A G62C | < 1e-05
G41A G44U A53G C58A G59U | < 1e-05
G41A U49G | 3.9e-05 ± 1e-05
G41A A42G A64C C68A | < 1e-05
G41A A42U U56C | < 1e-05
A48G C50G A52U | < 1e-05
G41A G44A U56A G62A U69A | < 1e-05
A39G U54G G60C C61A | < 1e-05
A42G U49G A53C G59C C67U | < 1e-05
U49G A53C C58G | < 1e-05
G41C U46A | 5.8e-05 ± 1.3e-05
U56G G60C C70U | < 1e-05
G43C A52U A53G U57A | < 1e-05
G43A G66U C67U C71U | < 1e-05

Variant | self-cleavage kobs at 2500 uM GlcN6P [s⁻¹]
G40A U49C | < 1e-05
A39C G51U C67A U69G | < 1e-05
G51A G63C | < 1e-05
G41U C58A C70U C71A | < 1e-05
A52U U55C A64G | 4.16e-05 ± 1.5e-05
A53G G59A | 3.91e-05 ± 1.5e-05
A53G G59U | 2.98e-05 ± 1.2e-05
A39U A48C | 0.000181 ± 1.8e-05
C58U U65A C68G | 0.000102 ± 3.1e-05
G43A C50U G62U | < 1e-05
A39U C50G A64G | < 1e-05
G40C G43U C50U | < 1e-05
U47C C58U C61U | < 1e-05
A48U U57C U65G | < 1e-05
G40A U54G U69A | < 1e-05
A48C U57A G62C | < 1e-05
A39G G44U A53C | 0.000157 ± 4.5e-05
G40A G41C C68A | < 1e-05
G40U A48C C50U | < 1e-05
U54G C58G | 9.35e-05 ± 1.7e-05
G44U U49C A64G | < 1e-05
G60U G63A U69G C70A | < 1e-05
A42G G43U A48C C58A | < 1e-05
G41A C50U C61G | < 1e-05
G51C G62U C71G | < 1e-05
G44U G63C C67U | < 1e-05

Variants of: B1
Assay: self-cleavage kobs at 10000 uM GlcN6P; higher = faster cleavage; RNA array
Details: with glucosamine-6-phosphate
Summary of the method: as §1

Variant | self-cleavage kobs at 10000 uM GlcN6P [s⁻¹]
A39C C71A | 5.25e-05 ± 7.2e-06
G9A U56C C58G | < 1e-05
A6C G37A G38A U47C A53C G63A C71G | < 1e-05
C8G G40U U57C G59A | < 1e-05
A6G C16U G41U G43A U47G | < 1e-05
C8G G9C C70U | < 1e-05
G7U C8G C16A | < 1e-05
A39G A48C C58G | < 1e-05
G7U A33C G43A | < 1e-05
C8G C10U U54G | < 1e-05
G9U G40A U54A C61U | < 1e-05
C10G G38A C70A | < 1e-05
U49A A52U A64G | < 1e-05
A1U U2G A3G C8G C34G | < 1e-05
G7C A48C A64G | < 1e-05
C11A U30C A39G | 0.000114 ± 2.3e-05
A6U C50G A53C C71A | 4.1e-05 ± 2e-05
G7C U55G U56C U69A | < 1e-05
G9U G37U U54C U69G | < 1e-05
C8A G21U | < 1e-05
C10A A33U U45C C58A | < 1e-05
C8A C10A G35C | < 1e-05
A6G G7C C8G G9C C11A A12G G13C C34U | < 1e-05
C8U C16G A64C | < 1e-05
G7U C10U G37A C67A | < 1e-05

Variant | self-cleavage kobs at 10000 uM GlcN6P [s⁻¹]
C10U U30G G38A A39C U69C | < 1e-05
C10G A14C A36U G66A | < 1e-05
C11A G41A A52C G59A U69G | < 1e-05
G44C C50U | < 1e-05
C11A A33C A42C C50G | < 1e-05
A6G C34G A36C | < 1e-05
C8A U30C U47G C58U | < 1e-05
G7U A48G C50G C61G | 0.000895 ± 0.00024
C8G G29C G35A | < 1e-05
C8G U45G U55C C71A | < 1e-05
G7U C58U C71A | < 1e-05
G9U A36G G38U G44U A52U G63U | < 1e-05
A6G G7U A15U C67G | < 1e-05
C8U G35A G38A G41U A64C | < 1e-05
A6G U31A G35C U47C U49A U54A | < 1e-05
G41A U49G | 3.34e-05 ± 8.6e-06
G9A G37C A42G C61A | < 1e-05
G7A G29C G32U U57C C58A | < 1e-05
A39G U54G G60C C61A | < 1e-05
C8U U31C A39U G66C | < 1e-05
C10A U45A U47G U57A G66C C70U | < 1e-05
A6U U56C C70U | < 1e-05
G41C U46A | 9.03e-05 ± 1.3e-05
C10A G13C G35C A39U | < 1e-05
G7U G9U A36G | < 1e-05

Variant | self-cleavage kobs at 10000 uM GlcN6P [s⁻¹]
G43C A52U A53G U57A | < 1e-05
C10A G37C | < 1e-05
G9C A39G C68U | < 1e-05
G7C U31C C34U G44C C70A | < 1e-05
C11A G13A G32U G44A U49G C50A | < 1e-05
G7A A39C G59C | < 1e-05
G40A U49C | < 1e-05
G51A G63C | < 1e-05
C10G A39U A48C | < 1e-05
C8A G41U U46G G63A | < 1e-05
C10U A15U A39G G41U | < 1e-05
A6C A53C U57C C71G | < 1e-05
A53G G59A | 7e-05 ± 1.9e-05
A53G G59U | 2.45e-05 ± 7.8e-06
A39U A48C | 0.000196 ± 1.6e-05
C10U G40A A64C U65C | < 1e-05
C10G A15U A48G U55C | < 1e-05
G9C G32A A42G | < 1e-05
U2C C11U G59U | 0.000103 ± 2.1e-05
G7A A33U G51A | < 1e-05
G7A U30A A39C A48C | < 1e-05
G7C G60U C61G | < 1e-05
G7U G13A A14U | < 1e-05
C8A G9C U30C C71A | < 1e-05
G9U A14C A36C U46A | < 1e-05

Variant | self-cleavage kobs at 10000 uM GlcN6P [s⁻¹]
C8U G9A G35C A36C G44U C68U | < 1e-05
G9C C16A A48G | < 1e-05
C10A U30G A33U A36U | < 1e-05
G7C G41A C61U | < 1e-05
C8U A39C C61A | < 1e-05
A6C G35C G38U | < 1e-05
A6G C10U A36U A52U C70U | < 1e-05
A6U G43U C58A C68U | < 1e-05
C10G U57G C67A | < 1e-05
A6G C16A A33C U46G A53G U54A | < 1e-05
C8A G63U G66U | < 1e-05
G7U G9U A64G | < 1e-05
G9U A15U A52U | < 1e-05
C8G C11A G60C | < 1e-05
U54G C58G | 0.000164 ± 2e-05
G7U G51C U54G | < 1e-05
A42G G43U A48C C58A | < 1e-05
C8A G38A G40C U57C | < 1e-05
C10U C16G G40A G51A A53G | < 1e-05
A6C C16U G29C C58A | < 1e-05
C8G G32C G60C | < 1e-05
A6U C8G U30C U55C | < 1e-05
